# Where “and” joins values, the source holds several entries; their conditions need not be identical. Equal values may be shown once.
# Molecular target: rat CaMKIIα holoenzyme (wild type, not phosphorylated) (rat (Rattus norvegicus)) (UniProt P11275)
# Assay: high-speed atomic force microscopy; single holoenzyme particles on mica modified with cationic pillar[5]arene; buffer A (50 mM tris-HCl pH 7.4, 15 mM KCl, 10 mM MgCl2, 10% glycerol) with the additives of each state; 24-26 °C; kinase domains seen around a central hub assembly
substance,measurement,value
"rat CaMKIIα holoenzyme (wild type, not phosphorylated) (a stretch of the chain, sequence left out) (enzyme; other documents disagree on this pair)",stoichiometry N,12 and 14

# Source: article PMC10313165
